From publication PMC6919601, “Identification of Plasmodium dipeptidyl aminopeptidase allosteric inhibitors by high throughput screening” (PLoS ONE, 2019)
Among all 110,000 compounds or so, about 230 (0.21%) showed an effect of 50% or more. The list shows a part of the results.

The compounds below were run against DPAP1 (Plasmodium falciparum, UniProt Q8IIJ9) (assay: primary screen, percent inhibition; read by cleavage of a fluorogenic dipeptide substrate; higher = more effect of the substance).
Sequence of DPAP1 (Q8IIJ9 whole entry, looked up): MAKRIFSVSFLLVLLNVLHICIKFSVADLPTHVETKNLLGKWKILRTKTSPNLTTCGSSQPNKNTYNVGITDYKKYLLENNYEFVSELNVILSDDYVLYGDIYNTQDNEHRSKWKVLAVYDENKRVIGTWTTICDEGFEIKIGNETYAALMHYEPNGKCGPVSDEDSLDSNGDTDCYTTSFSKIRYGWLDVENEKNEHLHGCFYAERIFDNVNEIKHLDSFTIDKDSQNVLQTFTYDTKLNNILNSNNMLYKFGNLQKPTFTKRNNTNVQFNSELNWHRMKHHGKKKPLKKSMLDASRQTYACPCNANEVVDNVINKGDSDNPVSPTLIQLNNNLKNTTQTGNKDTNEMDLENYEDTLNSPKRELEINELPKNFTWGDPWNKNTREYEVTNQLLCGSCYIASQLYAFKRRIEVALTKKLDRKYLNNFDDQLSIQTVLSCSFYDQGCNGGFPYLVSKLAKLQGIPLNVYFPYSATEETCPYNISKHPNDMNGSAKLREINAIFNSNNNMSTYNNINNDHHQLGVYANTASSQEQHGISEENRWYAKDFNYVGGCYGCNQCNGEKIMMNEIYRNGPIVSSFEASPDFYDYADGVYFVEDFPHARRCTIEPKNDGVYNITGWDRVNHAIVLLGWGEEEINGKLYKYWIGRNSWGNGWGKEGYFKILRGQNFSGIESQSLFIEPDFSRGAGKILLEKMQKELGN
Set-up: species or system P. falciparum D10 trophozoite lysates; single well
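Also: 30 min substrate incubation versus DMSO and 10 µM JCP410 controls.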

SMILES	% Inhibition @ 10 uM [%]
Cc1ccc(OCCCN2CCCCC2)cc1	2.7
COc1cc(/C=C2\SC(N3CCCC3)=NC2=O)cc(OC)c1OC	7.3
CCOC(=O)c1sc(NC(=O)c2ccc(OC)c(OC)c2)nc1C	9.47
Nc1nc(SCC(=O)NCc2ccccn2)nc2sc3c(c12)CCCC3	2.37
CN(c1ccc(O)cc1)c1ccc2nonc2c1[N+](=O)[O-]	4.15
Cc1ccc(CN2CCC(CNS(=O)(=O)c3cc(-c4cc(C)no4)ccc3C)C2)cc1 (centres unmarked)	-5.69
Clc1ccc(-c2nc(Cc3ccccc3)no2)cc1	3
Cc1ccccc1/C=C/[n+]1ccccc1	1.57
O=C(CCNC(=O)c1ccc(Br)o1)NCc1ccccc1Cl	3.08
COc1ccc(S(=O)(=O)NCc2ccc(C)cc2)cc1OC	3.47
CN(c1ccc(C(=O)NC2CCCCCC2)cc1)S(C)(=O)=O	5.66
O/N=C/c1ccc(-c2ccc(Br)cc2)o1	-3.98
CCC1CCCCN1c1c(-c2ccc(C)cc2)c(=O)c1=O (centres unmarked)	-1.4
CC(C(=O)c1ccccc1)n1nnc2sc3c(c2c1=O)CCCC3 (centres unmarked)	7.04
N#Cc1cccc(NC(=O)c2ccccc2C(=O)O)c1	-4.08
CN(C)c1oc(/C=C/c2cccs2)nc1C#N	-3.49
CCOc1ccc(-c2cn3c(n2)sc2cc(C(=O)NC(C)CC)ccc23)cc1 (centres unmarked)	1.09
Cc1cc(N2CCC(C(=O)N(C)CCC#N)CC2)n2nc(C)c(-c3ccc(Cl)cc3)c2n1	-5.58
CC(C)CCNC(=O)CSc1nc2ccccc2c2nc(-c3ccccc3)nn12	-1.15
CC(=O)N1c2ccc(C)cc2C(Nc2ccc(C)cc2)CC1C (centres unmarked)	1.84
COc1cccc(C2=NOC(C(=O)Nc3cc(C)on3)C2)c1OC (centres unmarked)	8.81
CCc1ccc(-n2nnc(-c3nsc(NC(=O)c4cccc(F)c4)n3)c2C)cc1	-2.85

SMILES	% Inhibition @ 10 uM [%]
COc1cc(OC)c(C(=O)NCc2nc(-c3ccc(Cl)cc3)no2)cc1OC	-1.22
N#Cc1nc(COc2ccc(Cl)cc2)oc1NCCc1ccccc1	0.726
COc1ccc(-c2nc(Cc3c[nH]c4ccccc34)sc2C)cc1	7.17
O=C(NCCCO)/C(=C\c1ccco1)NC(=O)c1ccc(Br)o1	-0.941
Cc1ccc(C(=O)Nc2cccc(C(F)(F)F)c2)cc1	-0.351
CC1(C)CC2=Nc3ccccc3NC(/C=C/c3ccccc3)C2=C(O)C1 (centres unmarked)	-3.27
COc1ccc(CCNC(=O)c2ccc(Cn3cc(Cl)cn3)cc2)cc1	0.413
CC1=C(C#N)C(=O)N(CCO)C(=O)/C1=C\c1ccc(-c2ccc(C)c(Cl)c2)o1	-1.26
CC1CCCC(C)N1S(=O)(=O)c1ccc(Br)cc1 (centres unmarked)	0.605
CCC(C(=O)NC1CCCC(C)C1C)n1c2ccccc2c2cnnc(O)c21 (centres unmarked)	-0.281
Cc1nn(-c2cccc3ccccc23)c(=O)c2ccccc12	-2.44
CCc1ccccc1NC(=O)COc1cccc2ccc(C)nc12	-6.05
O[C@@H]1CCN[C@H]2CCCC[C@H]12	-8.19
COc1ccc(N2C(=O)C(Cl)=C(Nc3cccc(OC)c3)C2=O)cc1	-1.3
COc1ccc(-c2cc(-c3ccccc3)nc(N3CCCC3)n2)cc1OC	0.827
COC(=O)c1sccc1NC(=O)COCc1cc(-c2ccc3c(c2)OCO3)on1	-1.62
Cc1ccccc1CCNCc1c(C(=O)O)n(Cc2ccc(Cl)cc2)c2ccccc12	1.17
CC1=NN(C(=O)Cc2ccccc2)C(C)(C)C1	1.62
N#Cc1c(NC(=O)c2cccc(F)c2F)sc2c1CCCC2	-4.67
Cc1ccc2oc(=O)c3cc(C(=O)NCCCN4CCCC4=O)sc3c2c1	0.521
N=C1/C(=C\c2ccc(O)cc2)C(=O)N=C2SC(N3CCOCC3)=NN12	0.0579
C/C(Cl)=C/CSc1nc2c(c(=O)[nH]c(=O)n2C)n1CCc1ccccc1	3.05

SMILES	% Inhibition @ 10 uM [%]
Cc1nc(N2CCOCC2)c2c(C)c(C(=O)NC(C)c3ccccc3)sc2n1 (centres unmarked)	-3.21
COc1ccc2nc(C)cc(Nc3cccc(Cl)c3)c2c1	-2.67
CC(C)CCOc1ccc(C(=O)CCNC(CC(C)C)C(=O)O)cc1 (centres unmarked)	30.1
CC1CN(C)C(c2ccccc2)C(C)C12NC(=O)NC2=O (centres unmarked)	-6.25
CCOCCCNC(=O)C1CCN(c2nc3ccc(CC)cc3s2)CC1	-1.31
CCOC(=O)N1CCC(/N=c2\c(O)c(O)\c2=N/CCCN2CCN(C3CCCCC3)CC2)CC1	-3.21
Cc1ccccc1C(=O)N(Cc1cccs1)C1CCS(=O)(=O)C1 (centres unmarked)	1.64
c1ccc(CN2CCC(N3CCOCC3)CC2)cc1	0.217
Cn1c(=O)c(=O)[nH]c2c(=O)oc3ccccc3c21	0.974
COc1ccc(NC2CC(=O)N(c3ccc(N4CCOCC4)cc3)C2=O)cc1 (centres unmarked)	3.1
CCc1ccc(C(=O)NC2=NC(=O)CC(c3ccc(C)cc3)N2)cc1 (centres unmarked)	2.65
COc1ccc(N2C(=O)C(Cl)=C(Nc3ccccc3C)C2=O)cc1	-5.48
N#Cc1c(SCC(=O)NCCc2ccccc2)nsc1SCC(=O)NCCc1ccccc1	-1.24
O=C(O)c1ccccc1C(=O)N1CCN(Cc2ccccc2)CC1	-2.67
NC(=O)c1ccc(NC(=O)CCC2CCCC2)cc1	-1.65
COc1ccc(-n2cccc2/C=C2\C(=N)N3N=C(c4ccco4)SC3=NC2=O)cc1	0.208
O=C(CC(Nc1ccccc1)c1ccccc1)c1ccccc1 (centres unmarked)	-2.28
Cc1ccc(N2C(=O)NC(=O)/C(=C/NCC(=O)O)C2=O)cc1C	-0.736
C=CC1OCC2(COC(C)=O)C(C)C=C(C)C1C2C (centres unmarked)	1.54
CC(C)c1ccc(C2=CC(c3cccc(Br)c3)n3ncnc3N2)cc1 (centres unmarked)	-1.48
C=Cc1ccc(Cn2c(C(=O)O)c(CNCc3ccc4c(c3)OCO4)c3ccc(OC)cc32)cc1	8.11
